PMC12136788
The list shows a part of the results.

T1: UNK ZnF1-3 (human, UniProt Q9C0B0 31-174)
T1 sequence: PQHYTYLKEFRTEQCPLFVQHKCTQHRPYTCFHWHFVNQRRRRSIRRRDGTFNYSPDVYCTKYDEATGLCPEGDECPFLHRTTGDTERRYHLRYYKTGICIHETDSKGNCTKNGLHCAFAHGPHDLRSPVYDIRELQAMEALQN

B1: chr11:87793471:87793472:-_ENSMUSG00000020483_ENSMUST00000020775|mus_mus|mus_mus_mus_hu_False|8_88 (ssRNA)
RNA: GGGAGUUCUACAGUCCGACGAUCUGGACUUGAAAAUAAAAGAAUAAGCUAGAUUUCCCACCCCCCCACAUUGUCAACCCUACACGAGAGUUUUGAAGGCGACUCAUGAAAAUCAGCAGCUCAAACGAAUGACAACCCCCCACCCAACAGAGGAUUGAGCAUCA
B2: chr2:27445747:27445748:+_ENSG00000084774_ENST00000264705|hu_mus|motif|central (ssRNA)
RNA: GGGAGUUCUACAGUCCGACGAUCAGAGGCAGGGUCACCGGGUCCAUUACUUAGGAAGAGACCGUCAUAUUUCUGACUGUCGGACUCGUGGUCCCAGGGUACCACGGUAACUUCAGCCCCAAGCUGGCAGAGACAUCGGAUCUGCAACAGAGGAUUGAGCAUCA
B3: chr10:57939204:57939205:+_ENSMUSG00000003226_ENSMUST00000003310|mus_mus|FALSE|FALSE (ssRNA)
RNA: GGGAGUUCUACAGUCCGACGAUCGGGUGGCCUUAUUACUUCACCCUGCAUGGGCUGAACGAAAUUGGAUUUUCCAAAUUCUAUAACCUUUGAUUCUGCUGACCUUGAAGCGUGAGCUACAAGUGGAGGCUUUGUGAAAUACCCCAACAGAGGAUUGAGCAUCA
B4: chr11:20202655:20202656:-_ENSMUSG00000020142_ENSMUST00000109594|mus_hu|motif|central (ssRNA)
RNA: GGGAGUUCUACAGUCCGACGAUCUGUAGUUAAUAGUUAAGUUCCCCUCUAUCCAAACACAAACUUGCUUGGCUUGGAGCGGAAACGGUACACACACGCACACACACACAUGCAUAUACACAACACACAUGUGUGUAUAGAUAUCAACAGAGGAUUGAGCAUCA
B5: 120575372_120575492_6592_CDS_ENSG00000089154_ENST00000300648|human|control|control (ssRNA)
RNA: GGGAGUUCUACAGUCCGACGAUCCCAGCUCUCCUCCAGAACCACAGGGCUGGAGUCAUUGAAGAGGCGGAUCAGGCCCGAGACCAGGCUCCGCAGGUGGCUGGUGUAGUCAGCCUUUGAGCGGGAACAGUAGAUGUUGAGGAUCAACAGAGGAUUGAGCAUCA
B6: 51244685_51244805_938_3pUTR_ENSMUSG00000021395_ENSMUST00000095797|mouse|control|control (ssRNA)
RNA: GGGAGUUCUACAGUCCGACGAUCACGUUUACCACCUUGCUUGUAACCCCCAACAGACAGCUUUCUUGUAAGAGGGAAGACCCCCUCACACAGAUGCUUUGAAGAGGGAGGACUCCCCUCACAGAUGCCUUGUGUUCGAAUCAGCAACAGAGGAUUGAGCAUCA
B7: chr7:7679991:7679992:-_ENSG00000106399_ENST00000396682|hu_hu|hu_hu_hu_mus_False|28_88 (ssRNA)
RNA: GGGAGUUCUACAGUCCGACGAUCUGGGAUGAAUCUUUUCCAGCUUCCCUACGAAGCACACGGGCCGGUCGAUAUACUGUGGUAACAUGCUGGCGUUGACGCGCGCUCUGGGCAAGUGCAUUAUGUCCUCCAUGAUUCUGCCGCCAACAGAGGAUUGAGCAUCA
B8: 121282780_121282900_235_3pUTR_ENSMUSG00000074884_ENSMUST00000148575|mouse|control|control (ssRNA)
RNA: GGGAGUUCUACAGUCCGACGAUCUCUAACUCCAACUCCACGUCUCCCUCGGUCGCCAUUUCGAUCUCACCGCGCCGCCGCAUAGGCUGCCGCUUCACAACUUCCGGCAACCCUCACAGCUUCCGCCCAGAUAAGGGGCGGGGUCAACAGAGGAUUGAGCAUCA
B9: chr1:130485734:130485735:-_ENSMUSG00000045382_ENSMUST00000052172|mus_mus|mus_mus_mus_hu_False|38_88 (ssRNA)
RNA: GGGAGUUCUACAGUCCGACGAUCGAUGAAGGAGUCGAUGCUGAUCCCCACAUAAUAAGGCAGCCAACAGGCGAAGAAAGCCAGGAUGAGGAUGACUGUCGUCUUGAGGGCCUUGCGCUUCUGGUGGCCCUUGGAGUGUGACAGCAACAGAGGAUUGAGCAUCA
B10: chr2:168010559:168010560:-_ENSMUSG00000051149_ENSMUST00000088001|perfect_dup|FALSE|FALSE (ssRNA)
RNA: GGGAGUUCUACAGUCCGACGAUCUUCCAAAGUCUUUUUGUCUGCAUUGAAGGUACAGUAGGGGCAAUUAAGGAGAAUCCUAUUUUCAAAGUCUUCACUAUGGACAUUGCGGAAAUGACUUUUGUAGGCAGAGAAGAAUUUUGACAACAGAGGAUUGAGCAUCA
B11: 171496935_171501553_1508_CDS_ENSG00000117523_ENST00000367742|human|control|control (ssRNA)
RNA: GGGAGUUCUACAGUCCGACGAUCAUCAGCUACUUGCUGCUUGGAGGGAAAGGGGCCUGGUCUUCCAGGUACUGCCUGUCGAUCUGGAGGUGGAUGCUGCUGUGCAAGCAACUUUGGAGGUGGUGGCAGAUGUGAAGAUGUUCCCAACAGAGGAUUGAGCAUCA
B12: chr5:71490377:71490378:+_ENSG00000131711_ENST00000296755|hu_mus|motif|central (ssRNA)
RNA: GGGAGUUCUACAGUCCGACGAUCGCCCACUCCCAUCUUCUGGAACAGGAUGACAGGCUCAAUGGUAUUGCCUACACUUCGGAAUAGAGGCUCUGGUUUCAUGGACAGUUUGUUUAAGUACUGGAGAGUGAAGCAUGCUUCUUCCAACAGAGGAUUGAGCAUCA
B13: chr17:45747064:45747065:+_ENSG00000108424_ENST00000290158|hu_hu|hu_hu_hu_mus_True|18_98 (ssRNA)
RNA: GGGAGUUCUACAGUCCGACGAUCGCCCACAGUCCACGCAGCUGUAUCUCGAACAACUACACUGGGGUCUUUCAUUAGUUCUAUUAGGGUGGGCAUAGCCUGUAUGACUAAUGGUUUGAGCUGACUGGGCUCUGGUCCUUCCAACAACAGAGGAUUGAGCAUCA
B14: 120916490_120918314_339_3pUTR_ENSG00000154114_ENST00000422003|human|control|control (ssRNA)
RNA: GGGAGUUCUACAGUCCGACGAUCCAGCAAUUUCUUUUUCAUCUCCUGCACAGGUUAUUCCACAGCUGUUCAACACUAGUACACUUGGGAGGUUGAGGCGAUCUUUCAUAGGAGAGCCCUGAGGUGUGGCUGGGACAUGGACUCCAACAGAGGAUUGAGCAUCA

target: T1, UNK ZnF1-3; experiment: nsRBNS (natural sequence RNA bind-n-seq); RBNS binding buffer (assumed for nsRBNS): 25 mM Tris pH 7.5, 150 mM KCl, 3 mM MgCl2, 0.01% Triton X-100, 500 ug/ml BSA, 20 U/ml SUPERase-In, 4 C; UNK is unkempt and MSI1 is Musashi-1; names of the RNAs are library labels; protein concentration not given here; high values mean tight binding

Compared with B1, B2 is lower in binding signal: 1.91 enrichment R for the first, 1.13 enrichment R for the second.

Going from B3 to B4, the binding signal falls from 0.875 enrichment R to 0.255 enrichment R.

Going from B5 to B6, the binding signal falls from 1.5 enrichment R to 0.707 enrichment R.

Going from B7 to B8, the binding signal rises from 0.75 enrichment R to 0.801 enrichment R.

Compared with B9, B10 is higher in binding signal: 0.981 enrichment R for the first, 1.15 enrichment R for the second.

Going from B11 to B12, the binding signal falls from 0.941 enrichment R to 0.899 enrichment R.

First: B13
Second: B14
The binding signal of the first is lower: 0.746 enrichment R for the first, 1.34 enrichment R for the second.
